Laboratory results published in PubChem BioAssay AID485294 (National Center for Advancing Translational Sciences (NCATS), 2010).
In all, about 370,000 compounds went through this assay and about 150 (0.041%) were called active. This list was built around the results that the source calls inconclusive (neither active nor inactive); the mix of calls is not that of the screen. The call rests on the fitted dose curve; in most records, active means well fitted inhibition curve with a large enough effect; inconclusive means small, poorly fitted or top-dose-only effect; inactive means flat fitted curve, though single readings scatter. No potency is given beside an inconclusive call; the fits are too rough.

These compounds were tested against Beta-lactamase (Escherichia coli (strain K12)) (UniProt P00811) (assay: qHTS Inhibitors of AmpC Beta-Lactamase (assay with detergent)). Conditions: AmpC hydrolysis of nitrocefin, absorbance 480 nm, 0.01% Triton; series mostly up to 114 µM.
Chain of UniProt P00811 (P00811 whole entry, looked up): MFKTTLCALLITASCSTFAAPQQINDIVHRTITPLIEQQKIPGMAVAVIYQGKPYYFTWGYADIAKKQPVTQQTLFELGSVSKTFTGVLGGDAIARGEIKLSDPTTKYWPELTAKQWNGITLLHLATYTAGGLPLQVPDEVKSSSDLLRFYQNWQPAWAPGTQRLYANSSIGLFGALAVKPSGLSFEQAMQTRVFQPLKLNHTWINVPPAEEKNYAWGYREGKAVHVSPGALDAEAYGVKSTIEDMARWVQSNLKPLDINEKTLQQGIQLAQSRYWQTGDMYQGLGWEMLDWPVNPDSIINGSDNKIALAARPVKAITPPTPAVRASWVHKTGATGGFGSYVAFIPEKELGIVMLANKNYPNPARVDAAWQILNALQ
In short: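 AmpC (5.3 nM in the dispensed reagent) in 20 mM phosphate pH 7.0 with 0.01% (detergent screen) or 0.0001% Triton X-100 was preincubated with compounds for 15 min at room temperature. Nitrocefin was then added from an 800 uM solution, and hydrolysis was followed at 480 nm.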
Further: nearly all actives have a fitted effect of over 25% in size.
Potency means the concentration at half of the fitted maximal effect; tags describe the fitted curve by direction and shape.

Row | Compound | Potency
1 | O=S(=O)(Nc1ccccn1)c1ccc(Cl)cc1 | inactive
2 | Cc1cccc(CSc2nc3c(c(-c4cccs4)c2C#N)CN(C)CC3)c1 | inconclusive [inhibitor, single point]
3 | CCCN(CCC)C(=O)CCS(=O)(=O)c1cccc2nsnc12 | inconclusive [inhibitor, full curve, poor fit]
4 | COc1ccc(CCN(C)C(=S)Nc2cccc(C)c2)cc1OC | inactive
5 | COc1ccc(NC(=O)CSc2n[nH]c(C(C)C)n2)c([N+](=O)[O-])c1 | inconclusive [inhibitor, partial curve, poor fit]
6 | O=C(NC(=S)NNC(=O)c1ccccc1O)c1ccc(F)cc1 | inactive
7 | CC(=O)C1=C(c2ccccc2)NC(=O)NC1c1ccccc1 (centres undefined) | inconclusive [inhibitor, full curve, poor fit]
8 | Cc1ccccc1CSc1cn(CC(=O)N2CCCC2)c2ccccc12 | inactive
9 | Cc1ccccc1-c1nnc(SCC(=O)NCc2ccc3c(c2)OCO3)n1C | inconclusive [inhibitor, single point]
10 | COc1ccc(N(CC(=O)NC2CCCCC2C)S(=O)(=O)c2c(C)nn(C)c2C)cc1 (centres undefined) | inconclusive [inhibitor, full curve, poor fit]
11 | O=C(CN1C(=O)C2C3c4ccccc4C(c4ccccc43)C2C1=O)Nc1ccccc1C(=O)O (centres undefined) | inconclusive [inhibitor, partial curve]
12 | COc1cccc(C(=O)N2CCN(S(=O)(=O)Cc3ccccc3)CC2)c1OC | inconclusive [inhibitor, full curve, poor fit]
13 | Cc1sc2c(c1C)C(=O)NC(c1ccccc1F)N2 (centres undefined) | inconclusive [inhibitor, single point]
14 | Cn1c(Cn2c(=O)sc3ccccc32)nnc1SCC(=O)N1CCc2ccccc21 | inconclusive [inhibitor, full curve, poor fit]
15 | O=C(c1sc2ccccc2c1Cl)N(Cc1ccco1)C1CCS(=O)(=O)C1 (centres undefined) | inconclusive [inhibitor, partial curve, poor fit]
16 | Cc1ccc(S(=O)(=O)c2c(C)cc(-c3ccccc3)[nH]c2=O)cc1 | inactive
17 | Cc1oc(-c2ccccc2F)nc1CN1CCC(C(=O)NC2CCCc3ccccc32)CC1 (centres undefined) | inconclusive [inhibitor, full curve, poor fit]
18 | COc1cc(SC)ccc1C(=O)NC1CCCc2ccccc21 (centres undefined) | inactive
19 | Cc1ccc(Cl)cc1NC(=S)N(CCCN1CCOCC1)Cc1ccccn1 | inconclusive [inhibitor, single point]
20 | Clc1ccc(-c2nc3ccccn3c2Nc2ccc3c(c2)OCCO3)s1 | inactive
21 | CC(=O)c1ccc(NC(=O)/C=C/c2ccc(C)cc2)cc1 | inactive
22 | CCOC(=O)N/N=C\C=C\c1ccco1 | inconclusive [inhibitor, full curve, poor fit]
23 | Cc1ccc2[nH]c(C)c(CCNC(=O)NC3CCCCC3)c2c1 | inconclusive [inhibitor, single point]

Row | Compound | Potency
24 | N[C@@H]1C[C@H]1c1ccccc1 | inconclusive [inhibitor, full curve]
25 | CCOCCc1nnc(NC(=O)C(=O)c2cc(C)n(-c3cccc(Cl)c3)c2C)s1 | inactive
26 | CCCCC(=O)Nc1ccccc1C(=O)OCC(=O)c1ccc2c(c1)OCCO2 | inactive
27 | CCN(CC)c1ccc(S(=O)(=O)Nc2cc(Cl)ccc2Cl)cc1NC(=S)NC(=O)C1CCCC1 | inconclusive [inhibitor, full curve, poor fit]
28 | Cc1cccc(OCc2nnc(SCC(=O)Nc3cc(C)on3)n2C)c1 | inconclusive [inhibitor, full curve, poor fit]
29 | O=C(NCc1nnc(SCc2ccccc2)n1-c1ccc(F)cc1)C12CC3CC(CC(C3)C1)C2 | inconclusive [inhibitor, partial curve, poor fit]
30 | Cc1n[nH]c(=S)n(/N=C/c2cccc([N+](=O)[O-])c2)c1=O | inactive
31 | Cc1ccc(-n2c(CNCc3ccc(F)cc3)nc3ccccc3c2=O)cc1 | inconclusive [inhibitor, full curve, poor fit]
32 | CCc1ccc(N2CCn3c2nc2c3c(=O)n(CCc3ccccc3)c(=O)n2C)cc1 | inactive
33 | O=C(CCc1nc2ccccc2c(=O)[nH]1)N1CCCc2ccccc21 | inconclusive [inhibitor, full curve, poor fit]
34 | O=C(COc1ccccc1F)Nc1ccc(Cl)c(-c2nc3ccccc3[nH]2)c1 | inconclusive [inhibitor, full curve, poor fit]
35 | COc1cccc(OC)c1OCc1cc(C2C3CCCC=C3C(C#N)=C(N)C2(C#N)C#N)c(C)cc1C (centres undefined) | inactive
36 | NC(=O)C1(N2CCCCC2)CCN(C(=O)c2ccccc2)CC1 | inconclusive [inhibitor, full curve, poor fit]
37 | CCOC(=O)c1ccc(NC(=O)CCN2C(=O)C3CC=CCC3C2=O)cc1 (centres undefined) | inactive
38 | O=C(Nc1ccccc1Cl)C1C(c2ccccc2)C1(Cl)Cl (centres undefined) | inconclusive [inhibitor, full curve, poor fit]
39 | COc1ccc(C(=O)c2c[nH]c(C(=O)NCC3CCCO3)c2)cc1 (centres undefined) | inactive
40 | CCOc1ccccc1NC(=O)C(OC(=O)c1ccc(N(C)C)cc1)c1ccccc1 (centres undefined) | inconclusive [inhibitor, full curve, poor fit]
41 | Cc1ccc(NC(=S)N(N)CCO)cc1 | inactive
42 | CCN(CC(=O)Nc1c(F)cccc1F)C(=O)c1cc(S(=O)(=O)NCc2ccccc2)ccc1C | inconclusive [inhibitor, full curve, poor fit]
43 | CNC(=O)CN1C(=O)c2cccc3cccc1c23 | inactive
44 | COc1ccc(-c2cc(C(=O)NCC(c3ccco3)N(C)C)c3ccccc3n2)cc1OC (centres undefined) | inconclusive [inhibitor, full curve]
45 | COc1ccc(-n2c(=O)c3c(c4cc(OC)ccc4n3C)n(C)c2=O)cc1 | inconclusive [inhibitor, single point]
46 | O=C(NCCC1=CCCCC1)c1ccc2c(c1)N(Cc1ccc(Cl)cc1)C(=O)c1ccccc1S2=O (centres undefined) | inconclusive [inhibitor, single point]

Row | Compound | Potency
47 | CCS(=O)c1ccccc1C(=O)OCC(=O)Nc1cccc(S(=O)(=O)N2CCCCC2)c1 (centres undefined) | inconclusive [inhibitor, partial curve, poor fit]
48 | COc1ccc(CC(=O)Nc2ccc(C)cc2O)cc1S(=O)(=O)N1CCOCC1 | inconclusive [inhibitor, single point]
49 | CC1=C(c2ccc(C)c(C)c2)S(=O)(=O)N=C1N1CCC(C(=O)NCc2ccc(Cl)cc2)CC1 | inactive
50 | Cc1ccc2occ(/C=N/NC(=O)c3ccccc3O)c(=O)c2c1 | inactive
51 | Cn1c(=O)n(CC(=O)NCc2cccnc2)c2ccccc21 | inconclusive [inhibitor, full curve]
52 | CC1=C(C(=O)OC(C)C)C(c2ccc(N(C)C)cc2)C2=C(CC(C)(C)CC2=O)N1 (centres undefined) | inconclusive [inhibitor, full curve]
53 | C=C(C)CN(CC)C(=O)CSc1nc2ncc(Cl)cc2[nH]1 | inconclusive [inhibitor, full curve, poor fit]
54 | Cc1cccc(C)c1NC(=O)c1cc2c(=O)c3ccccc3oc2nc1C(F)(F)F | inconclusive [inhibitor, full curve]
55 | COc1ccc(NC(=O)COc2ccc(N(C)S(=O)(=O)c3ccc(C)cc3)cc2)cc1 | inconclusive [inhibitor, single point]
56 | CCc1ccc(C(=O)/C=C/c2cnn(C)c2C)s1 | inconclusive [inhibitor, partial curve]
57 | COC(=O)c1cc(S(=O)(=O)N2CCCCC2C)c[nH]1 (centres undefined) | inactive
58 | O=C(Nc1nc2cc3c(cc2s1)OCO3)c1cccc(N2C(=O)CCC2=O)c1 | inactive
59 | N#Cc1c(N)n(-c2ccccc2N)c2nc3ccccc3nc12 | inactive
60 | O=C(c1ccc2c(=O)n(Cc3ccc4c(c3)OCO4)c(=S)[nH]c2c1)N1CCC2(CC1)OCCO2 | inconclusive [inhibitor, partial curve, poor fit]
61 | Cc1ccc(N2CC(NS(=O)(=O)c3cccs3)CC2=O)cc1 (centres undefined) | inconclusive [inhibitor, full curve, poor fit]
62 | CCCC(=O)Nc1cccn(Cc2ccccc2Br)c1=O | inconclusive [inhibitor, partial curve, poor fit]
63 | CC(C)CC(NC(=O)C1CCC(C)CC1)C(=O)Nc1ccc2c(c1)OCCO2 (centres undefined) | inconclusive [inhibitor, full curve]
64 | O=c1[nH]c2ccc(NCc3ccccc3F)cc2[nH]1 | inactive
65 | NNC(=O)c1csc(-c2ccccc2)n1 | inconclusive [inhibitor, full curve, poor fit]
66 | Clc1ccc(OCc2nc(-c3ccncc3)no2)cc1 | inconclusive [inhibitor, full curve, poor fit]
67 | CCOc1ccccc1OCCCOc1ccc([N+](=O)[O-])cc1Cl | inactive
68 | CN1CCC(Oc2ccccc2Sc2ccccc2)CC1 | inconclusive [inhibitor, partial curve]
69 | CCN(CC)CCSc1nnc2c3ccccc3n(CCc3ccccc3)c2n1 | inconclusive [inhibitor, full curve, poor fit]
